Results taken from paper PMC6212790.
The other results are listed elsewhere or left out. At the low end of the ranking the order means little.

target: T1, GST-Rok (full length) (UniProt O34857); experiment: protein binding microarray; settings: Rok is a gene silencer of Bacillus subtilis; high values mean tight binding; most listed sequences are background and not binding sites; double strand, one strand shown;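 note: rank score from −0.5 (least bound) to 0.5 (best bound)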
T1 sequence: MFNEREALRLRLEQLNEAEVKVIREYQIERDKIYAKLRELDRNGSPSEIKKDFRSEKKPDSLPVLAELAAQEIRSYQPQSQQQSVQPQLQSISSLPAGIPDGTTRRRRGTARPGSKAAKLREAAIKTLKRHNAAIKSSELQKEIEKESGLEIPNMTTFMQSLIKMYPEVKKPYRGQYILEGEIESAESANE

Row | Sequence | binding signal [E-score]
1 | CATATAAA | 0.175
2 | GGGTTGTA | -0.0711
3 | GTCGCGTA | 0.198
4 | AAAATTCG | 0.123
5 | CACCCTCG | -0.113
6 | GCATCCAA | 0.0302
7 | GGACCGAA | -0.113
8 | CTTTCTTA | 0.104
9 | ACTAAACT | 0.291
10 | GACCACTC | -0.158
11 | GTCTGTTA | 0.0123
12 | ATCACGTA | 0.118
13 | CATAGGTC | -0.0596
14 | ACTTAATA | 0.217
15 | CTAAAGGA | -0.191
16 | GCGGTTTA | -0.035
17 | CAACGGTA | 0.259
18 | GAGGACTC | -0.171
19 | AGGCCCAA | -0.28
20 | AACTGGGA | -0.293
21 | CTTCATGC | 0.0306
22 | ACATAGAG | 0.00988
23 | CAATGAGC | -0.187
24 | ATGCGAAT | -0.052
25 | GTATAATA | 0.407

Row | Sequence | binding signal [E-score]
26 | ATAATTTC | 0.351
27 | AAGTACTC | 0.165
28 | ACGATTTG | -0.0383
29 | GAAGCGTC | -0.161
30 | CCTTTCGC | -0.199
31 | AATAGGCT | 0.0628
32 | CCGGATGA | -0.0393
33 | ACGGTGTG | -0.128
34 | CGAATCGA | 0.0947
35 | TTCCCCAA | -0.0604
36 | CATGGGAG | -0.291
37 | CAAAGCAA | 0.116
38 | CCGTGCAC | -0.0815
39 | CTAAGGAG | -0.136
40 | CGCGGACA | -0.0659
41 | GGAGAGCC | -0.38
42 | CCGGAGTA | -0.00491
43 | CGCCGCCA | -0.311
44 | AAAGTTGT | 0.0305
45 | AAGTCCTA | 0.0146
46 | ATCTCTTA | -0.0024
47 | ACAGCAAG | -0.132
48 | CATCCGCC | -0.226
49 | CGCGCCAG | -0.217
50 | AAGGGGAC | -0.318

Row | Sequence | binding signal [E-score]
51 | GTTGGTTA | 0.26
52 | AAAAGCTC | -0.0258
53 | GAGGATAA | 0.11
54 | CGCGATTC | 0.126
55 | CACCCAGG | -0.361
56 | CACCGCGG | -0.308
57 | ATGCAGTG | 0.0262
58 | AAAATGAC | -0.0564
59 | CTGGACCA | -0.249
60 | GCTGTCGA | -0.0234
61 | ATAGTTCC | 0.135
62 | AGAGTGAC | -0.0819
63 | CACCAATG | 0.0402
64 | ACTCTGCG | 0.0598
65 | ACACAGCG | 0.0555
66 | ACCCGAGC | -0.124
67 | ACAGAACG | 0.0952
68 | AGCCTCCT | -0.351
69 | CCGTTATA | 0.156
70 | AGACTAGG | 0.0924
71 | ATCAGGTG | 0.12
72 | CTTTTATA | 0.24
73 | TAGGCCTA | -0.0356
74 | ACACTATA | 0.245
75 | GGAAGGGA | -0.339

Row | Sequence | binding signal [E-score]
76 | GTATGTTA | 0.283
77 | GGCTCACC | -0.296
78 | CATGAGCG | -0.206
79 | CTTACTCA | -0.0171
80 | CGCACAGC | -0.265
81 | CGGATACG | 0.0214
82 | CCGGGCGA | -0.446
83 | TTCCCGAA | -0.0943
84 | CAAATAGG | -0.0651
85 | AATCGAAA | 0.0382
86 | GATTCTGC | -0.0394
87 | ATTCCACG | 0.0366
88 | AGTGTCCC | -0.241
89 | GGCAACAA | -0.107
90 | AATAAGAG | 0.143
91 | CCCTAACA | -0.1
92 | AATGCCGC | 0.0861
93 | CACCCATC | -0.15
94 | CCACAGAC | 0.012
95 | CATGGCTC | -0.111
96 | GTCGAACA | -0.00873
97 | AAATAAAA | 0.172
98 | CATGTATA | 0.29
99 | TAATGGCA | 0.0365
100 | TAAGGACA | -0.221

Row | Sequence | binding signal [E-score]
101 | CGGGTATA | -0.0343
102 | ACGGGACG | -0.214
103 | AAGGCATC | 0.102
104 | CGTGAGAA | 0.114
105 | CGACCCAG | -0.197
106 | ATGGACTC | -0.171
107 | GAGATTCA | 0.0429
108 | CCAGACGG | -0.108
109 | CCCTACTC | -0.325
110 | AGCCTAAA | -0.214
111 | CAGAAAGA | -0.119
112 | AACACATG | 0.0367
113 | ACCAATAC | -0.0446
114 | AAAGTCAA | 0.0624
115 | CGCCACAG | -0.245
116 | TAGTGTGA | 0.0275
117 | TAGAATGA | 0.211
118 | ACTCCCTA | -0.229
119 | CAATTGAG | -0.00833
120 | CGTCATTC | 0.201
121 | GTTACGAA | 0.0713
122 | GGCGGGAA | -0.248
123 | AAATTCTG | 0.235
124 | GCTACCTA | 0.243
125 | CTGCGATC | -0.269

Row | Sequence | binding signal [E-score]
126 | AGGTTGTC | -0.191
127 | ACGGTCAA | 0.00563
128 | AGTCGGGA | -0.217
129 | GCGCTGGA | -0.0459
130 | GTCGTAAC | 0.0334
131 | GACATTCA | 0.041
132 | ATATCGCC | 0.0826
133 | CAAGTCAG | -0.093
134 | CTCCCTTC | -0.352
135 | CTGTATGA | 0.0887
136 | CGGACGTA | 0.194
137 | CGACACGA | -0.089
138 | GCTTAATA | 0.189
139 | AGCGTAGG | -0.121
140 | GAAAGTAA | 0.251
141 | ATTGAGTC | 0.132
142 | AACATAGC | 0.168
143 | CAGCCCTG | -0.31
144 | GAACTTGC | 0.0534
145 | CATTATGA | 0.257
146 | CTGCTCTA | -0.0572
147 | CCATGGGA | -0.252
148 | GAACGTGC | -0.141
149 | CGTTCATC | -0.182
150 | CCGATGTA | 0.11

Row | Sequence | binding signal [E-score]
151 | CGACCGGA | -0.122
152 | ATGACAGG | 0.0863
153 | AAACTAAC | 0.233
154 | GAGGGTCC | -0.363
155 | GAATAAAA | 0.0162
156 | CCATGTGA | -0.0861
157 | GCTAGCCC | -0.0268
158 | ACACCACG | -0.12
159 | CGCCCGAG | -0.28
160 | AAGCTGCG | -0.0688
161 | CAGACGAC | -0.112
162 | AGTCAAGC | 0.00916
163 | ATGTTGTG | -0.104
164 | AGTAGGTA | 0.404
165 | ACTCGTCA | 0.0819
166 | AAGGCGTC | -0.207
167 | ATCCGTAG | 0.00597
168 | CCGGCGCC | -0.298
169 | GTACTAAC | 0.148
170 | AAAGTAGT | 0.312
171 | CATGGTGG | -0.31
172 | TAGATAAA | 0.317
173 | GGCCCAGA | -0.124
174 | GCATTGAC | -0.133
175 | TAAAAGGA | -0.0508

Row | Sequence | binding signal [E-score]
176 | CTATAAGC | 0.113
177 | ACGGCACT | -0.0103
178 | GCGGATTA | -0.0791
179 | ACTCGTAG | 0.199
180 | GTTTGGTA | 0.258
181 | AAACGCAA | 0.0994
182 | CGGCCCCA | -0.345
183 | AAGTTCTA | 0.272
184 | GGTGTCGA | -0.128
185 | ATGAAGAA | -0.0853
186 | GAATCAGC | -0.101
187 | ATCTCATA | 0.21
188 | TCCGATAA | -0.0469
189 | AGGAGGGA | -0.222
190 | ACCGTCTG | 0.00482
191 | GGACCCTA | -0.199
192 | TCGAAACA | 0.04
193 | GTGAAAGA | -0.00825
194 | CCAGGGTC | -0.306
195 | CCCAAGGA | -0.279
196 | AAAGCCCT | -0.156
197 | CACCCTAC | -0.176
198 | ATTCTAGC | 0.257
199 | ACCGTTCA | 0.155
200 | ACCGAATC | 0.0528

Row | Sequence | binding signal [E-score]
201 | CGAAGAAG | -0.098
202 | CCGCGGAG | -0.183
203 | AAATCAGA | 0.0767
204 | CGATCAAC | -0.0147
205 | CAGGAAGC | -0.243
206 | ACGGCGCT | -0.115
207 | ACCGTATG | 0.0889
208 | AATTGCGG | 0.17
209 | CAAGAAGG | -0.351
210 | ACAGGAAA | 0.0725
211 | CCTAGCAA | 0.0634
212 | CATACTGG | 0.0985
213 | TTCCGGAA | -0.118
214 | TACCCGTA | 0.0835
215 | ACGATAAG | 0.194
216 | AAGTCGAG | -0.0999
217 | ATGATCAG | 0.134
218 | ACTGTTAA | 0.09
219 | TTACGCAA | 0.181
